Source: PubChem BioAssay AID1347120 (National Center for Advancing Translational Sciences (NCATS), 2019)
About 930 (0.24%) of roughly 390,000 compounds were called active. This list was built around the results that the source calls inconclusive (neither active nor inactive); the mix of calls is not that of the screen. The call rests on the fitted dose curve; in most records, active means well fitted activation curve with a large enough effect; inconclusive means small, poorly fitted or top-dose-only effect; inactive means no such curve, though single readings can be large or run the other way. Potencies beside an inconclusive call are fits to weak or partial responses and may not hold up.

test: qHTS for Suppressors of FUS Proteinopathy: Primary screen using FUS-linked yeast assay; further: nearly all actives have a fitted effect of over 55% in size;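 on growth rescue (activation): plate controls were DMSO vehicle for no effect and reference control for full effect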; conditions: S. cerevisiae FUS-expressing, OD600, 24 h; Potency: growth rescue; growth rescue (activation): at 76.6 µM (top of the series)
In short: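 Compound concentration series was pinned onto galactose-induced FUS-expressing yeast seeded at OD 0.005. Plates sat 24hr at 30C; absorbance at 600 nm gave growth. DMSO served as background control.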
Potency means the concentration at half of the fitted maximal effect; tags describe the fitted curve by direction and shape.

SMILES	growth rescue (activation)	Potency
Cc1ccc(C2=CC(c3ccccc3)n3ncnc3N2)c(C)c1 (configuration not stated)	inactive: 1.82%	–
CCN(CC)c1nc(-c2ccc(C(=O)NN)cc2)nc(-c2ccc(C(=O)NN)cc2)n1	–	inconclusive: 12.6 µM [activator, partial curve, poor fit]
Cc1cccc(N2CCN(C(=O)c3cccn3-c3nnc(N4CCCCC4)s3)CC2)c1C	–	inconclusive: 25.1 µM [activator, single point]
Cc1ccc(Cl)cc1N1CCN(C(=O)c2nn(C)c3c2CS(=O)(=O)c2ccccc2-3)CC1	–	inconclusive: 31.6 µM [activator, single point]
COc1ccc(Oc2nnnn2-c2ccccc2)cc1	inactive: 7.2%	–
CCOC(=O)c1csc(NC(=O)c2ccc(S(=O)(=O)N(C)C)cc2)n1	inactive: -14.4%	–
C=CCOC(=O)C1=C(C)N=c2s/c(=C3\C(=O)N(CC(=O)O)c4ccccc43)c(=O)n2C1c1ccc(OC)cc1 (configuration not stated)	–	inconclusive: 31.6 µM [activator, single point]
CC(C)c1ccc(NC(=O)CN2C(=O)CSc3ccc(S(=O)(=O)N4CCCC4)cc32)cc1	–	inconclusive: 25.1 µM [activator, single point]
COc1ccc(O)c(C2=Nc3ccccc3N=C(c3ccco3)C2)c1	–	inconclusive: 50.1 µM [activator, single point]
O=C(OCC(=O)c1c[nH]c2ccccc12)c1cncc(Br)c1	inactive: 25.1%	–
COc1ccc(NC(=O)Nc2ccc3c(c2)CC(=O)N([C@H](C)CO)C[C@@H](C)[C@H](CN(C)C(=O)Nc2ccccc2)O3)cc1	–	inconclusive: 22.4 µM [activator, single point]
CCCCNc1c2c3c(cccc3n(C)c1=O)C(=O)c1ccccc1-2	–	inconclusive: 17.8 µM [activator, partial curve, poor fit]
COc1ccccc1OCCSc1nc2ccccc2n1CCC(=O)O	inactive: -12.3%	–
Cc1ccc(Cn2c(C3CCCN3c3nc(-c4cc(Cl)c(N)c(Cl)c4)cs3)nc3cc(C(=O)NCCCO)ccc32)cc1 (configuration not stated)	–	inconclusive: 50.1 µM [activator, single point]
Cc1ccc(N2C(=O)C3CC(c4ccccc4)=C4C5C=CC(C6C(=O)N(c7ccc(C)cc7C)C(=O)C56)C4C3C2=O)c(C)c1 (configuration not stated)	–	inconclusive: 31.6 µM [activator, single point]
CCCCN(C)C(=O)c1ccc2c(c1)N(Cc1ccc(F)cc1)C(=O)c1ccccc1S2(=O)=O	–	inconclusive: 25.1 µM [activator, partial curve, poor fit]
O=C(Nc1ccccc1F)C1CCN(S(=O)(=O)c2ccc3c(c2)CCCN3C(=O)C2CCC2)CC1	–	inconclusive: 28.2 µM [activator, single point]
